System: patients with treatment-resistant major depressive disorder (TRD)
Assay: Phase 1/2 clinical trial of inhaled 5-MeO-DMT in patients with TRD
Settings: for MADRS Suicidal Thoughts item score, sum of patients: baseline 8; for MADRS Inner Tension item score, sum of patients / BPRS Emotional Withdrawal item score, sum of patients: baseline 13; for MADRS Concentration Difficulties item score, sum of patients / MADRS Inability to Feel item score, sum of patients / MADRS Lassitude item score, sum of patients / MADRS Pessimistic Thoughts item score, sum of patients: baseline 16; for BPRS Blunted Affect item score, sum of patients: baseline 11; for BPRS Guilt Feelings item score, sum of patients: baseline 18; for MADRS Reduced Sleep item score, sum of patients: baseline 12; for BPRS Anxiety item score, sum of patients: baseline 25; for patients with at least one ADR: n=4
[1] = 12 mg n=4, 3 hours, baseline 14

## COc1ccc2[nH]cc(CCN(C)C)c2c1 [5-MeO-DMT]
12 mg n=4, 2 hours
  MADRS Suicidal Thoughts item score, sum of patients: 3
  MADRS Inner Tension item score, sum of patients: 2
  MADRS Concentration Difficulties item score, sum of patients: 7
  MADRS Inability to Feel item score, sum of patients: 9
  MADRS Lassitude item score, sum of patients: 10
  MADRS Pessimistic Thoughts item score, sum of patients: 8
12 mg n=4, 3 hours
  BPRS Blunted Affect item score, sum of patients: 8
  BPRS Guilt Feelings item score, sum of patients: 9
[1]
  BPRS Tension item score, sum of patients: 9
  BPRS Tension percentage improvement: 36%
12 mg n=4, day 1
  MADRS Suicidal Thoughts item score, sum of patients: 5
  BPRS Blunted Affect item score, sum of patients: 6
  MADRS Reduced Sleep item score, sum of patients: 10
  BPRS Emotional Withdrawal item score, sum of patients: 8
  MADRS Inner Tension item score, sum of patients: 3
  MADRS Concentration Difficulties item score, sum of patients: 2
  MADRS Inability to Feel item score, sum of patients: 1
  MADRS Lassitude item score, sum of patients: 0
  MADRS Pessimistic Thoughts item score, sum of patients: 7
  BPRS Guilt Feelings item score, sum of patients: 5
  BPRS Anxiety item score, sum of patients: 6
12 mg n=4, day 1, baseline 14
  BPRS Tension item score, sum of patients: 6
12 mg n=4, day 7
  MADRS Suicidal Thoughts item score, sum of patients: 7
  BPRS Blunted Affect item score, sum of patients: 5
  MADRS Reduced Sleep item score, sum of patients: 6
  BPRS Emotional Withdrawal item score, sum of patients: 6
  MADRS Inner Tension item score, sum of patients: 5
  MADRS Concentration Difficulties item score, sum of patients: 3
  MADRS Inability to Feel item score, sum of patients: 1
  MADRS Lassitude item score, sum of patients: 3
  MADRS Pessimistic Thoughts item score, sum of patients: 8
  BPRS Guilt Feelings item score, sum of patients: 5
  BPRS Anxiety item score, sum of patients: 6
12 mg n=4, day 7, baseline 14
  BPRS Tension item score, sum of patients: 6
Part A and Part B
  changes in safety laboratory analyses, vital signs, psychiatric safety assessments or measures of cognitive function: No clinically significant changes
Part A, 12 mg and 18 mg groups
  ADR severity and outcome: mild and resolved spontaneously
Part A, 12 mg single dose
  patients with at least one ADR: 3 of 4
Part A, 18 mg single dose
  patients with at least one ADR: 3 of 4
